In the supplement of paper PMC10126150:
Values marked as one replicate rest on one cluster of the flow cell; about a third of the high ones do not repeat.

Tested on: ATP
Assay: switch fluorescence ratio, 500 uM ATP over buffer (Cy3 cluster intensity, sum of 5 cycles each) (fold (ratio)); higher = stronger signal-on switching upon ATP binding; sequences stand for … in TCGTCGGCAGCGTCAGATGTGTATAAGAGACAGTTTTTTTTTTTTTTTTTTTTTTTTT…TC
Conditions: aptamer strand: ATP DNA aptamer (quencher-CACCTGGGGGAGTATTGCGGAGGAAGG + anchor), 100 nM annealed; ATP concentration: 500 uM; one replicate
Outline: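 Five buffer/ATP imaging cycles were run on Cy3-labelled switching-strand clusters on a modified Illumina MiSeq flow-cell, with NaOH stripping and re-annealing between cycles. In each cycle, clusters annealed to 100 nM quencher-labelled ATP aptamer were imaged in selection buffer, then after 15 min with 500 uM ATP at 22 °C. Per cluster, the fluorescence ratio is summed target-cycle over summed buffer-cycle Cy3 intensity, averaged per switch-domain sequence. Only clusters within 100-1000 RFU were kept.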
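Also: ATP exposure 15 min at 22 °C before imaging.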

Sequence | switch fluorescence ratio
TGAAGTTGTT | 1.02
GCTAAGTTCG | 0.997
AACGGTGTGG | 1
TGACTTCACA | 1.32
GGCATGGAGC | 0.993
CACCTAGGCA | 1.03
ATGGAACGAT | 1.16
CTGGGATAGT | 1.01
CACTGATGGT | 1
AAAGCCGGT | 1.03
GATTTCAGAT | 0.989
GGTCGGCCCA | 1.01
TCCTTGCGGC | 1.8
GACGCACGGC | 2.31
GCGATTGCTG | 0.999
AGCTCCTCA | 1.01
GTCCGAGGGG | 1.04
TGGTACGGAT | 1.05
GTTGGTGTCA | 1.02
GGAGGTGGGG | 1
TTATTTCCA | 1.01
AGCATTCTTC | 1.07
AAAGGAGCCA | 0.979
GCGGTGATGC | 0.961
GGAGACAGAA | 1

Sequence | switch fluorescence ratio
AATGATTTGA | 0.997
CTCGCGTTAT | 1.25
ACTTCTGAGT | 1
TTGTGGTAGG | 0.978
AAGAGTCACG | 1.01
GGAGGCCAAT | 0.976
TGAAAGGTAG | 0.98
TCTCCATCTG | 1.02
GTTGTGCATG | 0.977
AGTAATCTGG | 0.981
CGGATCAAA | 1.01
ATGTAATGCG | 0.994
CAATGTGTCA | 0.99
ATGTAGAACC | 1.01
CAAGCCGATT | 1.02
GGGGTCATAC | 1.04
TGCCTCTTAG | 0.971
CCTTGACAGC | 1.1
ACCTTTTGGA | 0.999
GCCTAAGCGA | 1.08
AAATTCGGCA | 1.04
ACTTCTCACG | 1.14
GTATTAAAAA | 0.972
GAAAAAAACT | 1.02
CTGGAACTC | 0.971

Sequence | switch fluorescence ratio
CGGGAGTAAC | 1.02
TTTGGTCTGG | 0.989
AGTGCATGGC | 1.13
CGAGGAATTA | 1.02
TAATCGTTGT | 0.962
AAGTAGGTCA | 1.28
AATCAGTGTT | 1.04
CAAACAGTT | 0.982
ACGTATTTAT | 1.14
CCCACTAATG | 0.981
AAGCTCATGG | 0.967
GTGAGATGCT | 0.989
GATGTATTGC | 1.05
GGTGTTCAAT | 1.01
CCTCGTTGAC | 3.76
CACTTAACAT | 1.14
GTAAGAACAA | 1.02
AAATCTCGGT | 1.03
GCTTATTTGA | 0.947
ACGTTACATC | 1.39
TTCAAGTTGA | 0.982
AGATCGTCAT | 0.966
CCTGGTCTTC | 1.02
TATTTGAAG | 1
AGCCCGGCGC | 1.03

Sequence | switch fluorescence ratio
GGTGACGAGG | 1.04
TTCTATTGGG | 0.993
TGTTGGCAGC | 0.982
ACTGCATAG | 0.978
TCTCTATAAT | 1.01
CCAGACTTGC | 0.951
GGAGTGACTA | 1.02
CGAAGTAGAC | 2.41
TTGCGAGGGA | 0.989
AGGGTCGCTT | 1.01
AAAAAAGGCG | 0.993
ATGTAGGACA | 1.02
GGGGAGCACC | 1.05
GTAGGAATGG | 1
TAATCCTCCT | 1.15
AGCTGTTAGA | 1.02
TAAACTTTAC | 1.22
GCGGACCTCA | 1.02
GTCATCGCTT | 0.967
CGTTTCCCAT | 1.01
TGCCCATTCT | 0.981
GATGTGTACC | 1.07
TACATAAACT | 1.02
TGACGAAGTG | 1
TGCAATGGTT | 1.1

Sequence | switch fluorescence ratio
TGACTAAGCT | 1.05
TATGATGCCC | 1.01
AAGGGGGAAA | 0.988
ACCGTGTTC | 0.991
TGTACTGGGA | 1.04
ATTTCAAATC | 1.01
TTCAGTAGTT | 1.04
CCCGGAAAAT | 0.993
AGCAGCATCA | 1.05
TTCGAGTTGC | 1.01
TTGCATAGCT | 1
TATACTCCGA | 1.03
AGGGTGGTAC | 1.01
CCATAAGACA | 1.01
CCTTTTTGTA | 0.997
TCCTACTGAG | 1.09
GGGGAGAATT | 1.01
GAGCCGGCGG | 0.973
CCAGAACAGT | 1.03
TTTGTTCGAG | 0.969
TTGGGTCACG | 0.98
TTCCGCCAAA | 2.36
CCACGGGGCC | 0.985
CCAAGCGTCA | 1.08
TGGTTACGCC | 0.98

Sequence | switch fluorescence ratio
AGACAGAGTT | 0.986
GTGTCTGCTA | 0.949
ACGAGCTACG | 1.11
GGGGTGTCAG | 0.994
GACAGGGTAC | 1.34
AGTGAATGCT | 0.97
TCATATGGGC | 1.14
ATTTAGAATT | 0.997
AACTAGGTTA | 0.992
TACAATGCCG | 1.04
GTTTACTTGG | 1.03
GCTGGTGAAA | 1.02
GCAGGCTTAT | 0.946
AGGAATTTAC | 1.07
CGTCCATTTC | 1.08
AGAGGATAGT | 1.03
GTGCACCTGT | 1.03
GGCACGCCTA | 1.36
GTGGGACCGC | 0.95
TCGTACTTCC | 1.94
CGGATATCC | 0.983
GTATTGGGAC | 1
TATAATCAT | 0.985
TCTGAACCGT | 1.04
AAAGTTGCGC | 0.95

Sequence | switch fluorescence ratio
CCGGATTAAA | 0.949
TGTATGTTCG | 0.939
GGCGAGCAGG | 1.02
TCCGCCTCGA | 2.62
ACGGCTGCAA | 1.01
CGTATTGTAG | 1
CTGGCCTTAC | 2.87
AATATTAGTT | 0.983
AAGGAGGAAT | 1.47
GGCGACGACA | 1.04
TGACGTATAG | 1.02
GCACAAGCGT | 0.995
TTTTAGGCGG | 1.01
CTGAAAGAGG | 0.976
AATTCCCCCC | 1.07
AAAAGTTCAG | 0.943
GGTTGTCAA | 1.05
AGCGTTCGAA | 1.02
CGTTAAGTCT | 1.02
AAGCTTTA | 1.02
TAATTTGAA | 0.984
GATTAGCTTG | 1.04
GCAATACAGT | 3.97
AACTACTCAC | 1.25
AGTACGCCTA | 1.01

Sequence | switch fluorescence ratio
GAACGGAAAC | 2.92
CATTCGAGGC | 1.06
TCTGACGGAT | 1.08
ATAAAAGATG | 1.01
CGGTGTGCTA | 1.03
AAATCTAATT | 0.962
GTTGAGCGAC | 1.05
GGGCTCATGA | 0.964
CTCCTATATT | 1.03
CCGAAAGGAG | 1.01
ACATTGAGTC | 1.07
CTATGGGAGG | 1.04
CGTTACTGTA | 1.25
AAGGGATAAT | 0.96
ATCGCTACGC | 1.06
GTATATTAAG | 1.01
CGGCCCTACC | 1.1
TGCTTGGTCT | 0.987
CGAAATAGTT | 1.05
TAGATTTCAA | 1.07
TGTCATGGCT | 0.963
CGTAATAGCA | 1.05
ATGTGCTCCT | 1.05
AGGCGCACTT | 0.952
TCTGGCTTAT | 1.04
